This note sets out measurements from PubChem BioAssay AID1645887 (National Center for Advancing Translational Sciences (NCATS), 2021).

Where “and” joins values, the source holds several entries; their conditions need not be identical. Identical values can stand only once. Hit rate of the full screen: of about 16,000 compounds, about 40 (0.2%) were called active. About 1% were inconclusive and are not listed. The call rests on the fitted dose curve; in most records, active means well fitted activation curve with a large enough effect; inconclusive means small, poorly fitted or top-dose-only effect, or another doubt; inactive means no such curve, though single readings can be large or run the other way. Some of the results follow.
On the % scale 0 is the no-effect control and ±100 the full control effect.

Sequence of UniProt Q8WZA2 (Q8WZA2 whole entry, looked up): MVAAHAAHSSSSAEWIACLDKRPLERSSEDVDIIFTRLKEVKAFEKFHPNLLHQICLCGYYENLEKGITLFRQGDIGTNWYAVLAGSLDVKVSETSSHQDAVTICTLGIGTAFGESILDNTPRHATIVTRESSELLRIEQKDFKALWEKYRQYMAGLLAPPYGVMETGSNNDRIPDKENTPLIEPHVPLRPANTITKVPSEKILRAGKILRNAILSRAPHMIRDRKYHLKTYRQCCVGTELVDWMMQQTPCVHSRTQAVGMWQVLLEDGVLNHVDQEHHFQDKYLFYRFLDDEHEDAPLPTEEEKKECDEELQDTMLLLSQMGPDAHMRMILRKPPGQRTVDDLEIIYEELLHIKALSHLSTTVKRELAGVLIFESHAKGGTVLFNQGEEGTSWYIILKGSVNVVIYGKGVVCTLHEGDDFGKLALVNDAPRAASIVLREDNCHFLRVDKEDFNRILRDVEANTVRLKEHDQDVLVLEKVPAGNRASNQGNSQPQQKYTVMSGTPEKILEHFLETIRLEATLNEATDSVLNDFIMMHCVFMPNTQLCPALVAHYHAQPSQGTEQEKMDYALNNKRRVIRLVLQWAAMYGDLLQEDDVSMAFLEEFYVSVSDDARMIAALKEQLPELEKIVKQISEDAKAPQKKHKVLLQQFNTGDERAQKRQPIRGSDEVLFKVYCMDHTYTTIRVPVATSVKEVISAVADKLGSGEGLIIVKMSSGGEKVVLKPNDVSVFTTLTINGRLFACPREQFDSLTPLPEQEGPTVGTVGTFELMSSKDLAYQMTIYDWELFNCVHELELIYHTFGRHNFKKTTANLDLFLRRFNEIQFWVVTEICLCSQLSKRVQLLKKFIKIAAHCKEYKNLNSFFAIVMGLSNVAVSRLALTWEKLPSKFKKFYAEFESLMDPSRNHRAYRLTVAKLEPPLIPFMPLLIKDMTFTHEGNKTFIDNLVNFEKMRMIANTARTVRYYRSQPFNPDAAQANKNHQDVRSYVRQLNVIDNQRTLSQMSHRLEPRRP

The target of this assay is Rap guanine nucleotide exchange factor 4 (Homo sapiens) (UniProt Q8WZA2). Briefly: Validation qHTS for agonist of cAMP-regulated guanine nucleotide exchange factor 4 (EPAC2).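 Further: exchange makes BODIPY-GDP fluorescence drop when released from Rap1B; series mostly up to about 150 µM.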 Conditions: EPAC2 Rap1B BODIPY-GDP exchange, fluorescence; activation: hits give high values. In outline:
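Signal normalized against 6.5 mM cAMP as agonist control. Mix of EPAC2 (100 nM), RAP1B-BODIPY-GDP (250 nM) and GDP (50 uM) was read kinetically at 480/540 nm, every 5 min over 30 min, after 5 min room-temperature incubation with compound.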
Consider `CCCCN=C(N)N=C(N)N`, for which the activation is inactive: -11.6%.
The same measure for `CS(=O)(=O)N1CCC2(CCCN(c3ccccn3)C2)CC1`: inactive: -17.6%.
As for `COc1ccc(CN2CCOc3ccc(CN4CCCCC4CO)cc3C2)c(OC)c1` (configuration not stated), the figure is inactive: 5.24%; as for `COc1cccc(Cn2c(=O)cnc3cnc(N4CCN(C)CC4)nc32)c1`, inactive: -6.07%.
As for `Cc1cnc(CNc2nc(-c3ccc(N(C)C)cc3)nc3ccccc23)cn1`, the figure is inactive: 11.2%; as for `COc1c(N2C[C@@H]3CCCN[C@H]3C2)c(F)cc2c(=O)c(C(=O)O)cn(C3CC3)c12`, inactive: -6.61% and inactive: 22.3%.
In the case of `CC[C@H](CC[C@@H](C)C1CC[C@H]2[C@@H]3CC=C4C[C@@H](O)CC[C@]4(C)[C@H]3CC[C@]12C)C(C)C` (some centres not stated), the activation was inactive: -3.23%.
On to `COC(=O)/C=C/C(C)=C/C=C/C(C)=C/C=C/C=C(C)/C=C/C=C(C)/C=C/C(=O)O`, for which the activation is inactive: -11.6%.
As for `O=C(CCN1Cc2ccccc2OC(c2ccccc2F)C1)N1CCC(N2CCCC(O)C2)CC1` (configuration not stated), the figure is inactive: -6.41%.
Consider `COc1ccc(Oc2ncc3nc(-c4cn(C)c5ccccc45)c(=O)n(CCC#N)c3n2)cc1`, for which the activation is inactive: -6.06%.
The same measure for `Cc1cnc(CNc2ncncc2-c2ccc(C(=O)N(C)C)cc2)cn1`: inactive: -7.22%; for `COC(=O)C[C@](O)(CCCC(C)(C)O)C(=O)O[C@@H]1C(OC)=C[C@]23CCCN2CCc2cc4c(cc2[C@H]13)OCO4`: inactive: -5.6%.
Regarding `CCCS(=O)(=O)NCc1c(C)ncc2c1CCN(C(=O)c1cccc(C(F)(F)F)c1)C2`, the activation is inactive: -13.6%.
As to `Clc1ccc(/C=C/c2ccnc3ccccc23)c(Cl)c1`, the activation was inactive: -25.4%.
As for `COc1ccc2cc(CNCc3nonc3C)c(N3CCCC(CO)C3)nc2c1` (configuration not stated), the figure is inactive: 4.89%; as for `CCCCCCCCCCCCCCCCCCc1ccc(C(=O)/C=C/C(=O)O)cc1`, inactive: -12.9%.
In the case of `COC(=O)C1[C@H]2SC(C)(C)C(C(=O)OC)N2C(=O)N1Cc1ccccc1` (some centres not stated), the activation was inactive: -17.5%.
On to `Nc1cc(=O)[nH]c(N)n1`, for which the activation was inactive: -9.92% and inactive: -10.9% and inactive: -4.27%.
The same measure for `O=C(OOC(=O)c1ccccc1)c1ccccc1`: inactive: -13.5%; for `N[C@@H](Cc1c[nH]c2ccccc12)C(=O)O`: inactive: -4.16%; for `O=C(O)c1nc(=O)[nH]c(=O)[nH]1`: inactive: -3.25%.
As for `Oc1ccc(Cl)cc1CN1CCOc2c(O)cc(-c3nc4ccccc4s3)cc2C1`, the figure is inactive: 16.6%.
As for `O=C(Nc1ccccc1)[C@@]12C[C@@H]1/C(=N/O)c1ccccc1O2`, the figure is inactive: -6.31%; as for `Cc1cc(C)n(CCC(=O)NCC2Cc3cc(Cl)cc(-c4cnccn4)c3O2)n1` (configuration not stated), inactive: -2.98%; as for `NC(=O)CCCCn1ccc(NC(N)=NCC(F)(F)F)n1`, inactive: -13.8% and inactive: -0.296%.
For the compound `Cc1cnc(CNc2ccnc(-c3ccc(N(C)C)cc3)n2)cn1`, the activation is inactive: -19.4%.
The same measure for `CC(O)Cn1cnc2c1c(=O)n(C)c(=O)n2C` (configuration not stated): inactive: -9.81%; for `NCCCC[C@H](N)C(=O)O`: inactive: -0.0542%.
Regarding `COc1ncc2nc(-c3cccs3)c(=O)n(Cc3ccc(F)cc3)c2n1`, the activation is inactive: 4.49%.
Turning to `COc1cccc(Cn2c(=O)c(-c3cn(C)c4ccccc34)nc3cnc(OC)nc32)c1`, the activation is inactive: -7.74%.
Turning to `Cc1ccccc1-c1nc(NC2CCNCC2)c2ccccc2n1`, the activation was inactive: -18%.
The same measure for `CC(Oc1ccccc1)C(=O)N[C@@H]1C(=O)N2C(C(=O)O)C(C)(C)S[C@H]12` (some centres not stated): inactive: -8.05%; for `CC(C)NC[C@@H](O)COc1ccc(CC(N)=O)cc1`: inactive: -18.6%.
In the case of `NS(=O)(=O)c1cc2c(cc1C(F)(F)F)NCNS2(=O)=O`, the activation was inactive: 0.685% and inactive: -19.1%.
As for `CCNc1ncc2nc(-c3ccccc3)c(=O)n(CCC#N)c2n1`, the activation is inactive: -17.7%.
As for `C=C1/C(=C\C=C2/CCC[C@]3(C)[C@@H]([C@H](C)OCCC(C)(C)O)CC[C@@H]23)C[C@@H](O)C[C@@H]1O`, the figure is inactive: -17.2%; as for `COC1(C2=NCCN2)COc2ccccc2O1` (configuration not stated), inactive: -13.3%; as for `O=C(C[n+]1ccccc1)c1cccc([N+](=O)[O-])c1`, inactive: -12.9%.
For `CO/N=C(\C(=O)N[C@@H]1C(=O)N2C(C(=O)[O-])=C(C[n+]3cccc4c3CCC4)CS[C@H]12)c1csc(N)n1`, the activation was inactive: -11.8%.
`CCCCCCCC/C=C\CCCCCCCC(N)=O`: the activation was inactive: -31.2% and inactive: 4.23%.
As for `CC(O)(COc1ccccc1)c1ccc2c(c1)CN(Cc1cccc3cccnc13)CCO2` (configuration not stated), the figure is inactive: -12%.
As for `COc1ccccc1N1CCN(CCCCNC(=O)c2ccc(-c3ccc(C(C)=O)cc3)cc2)CC1`, the figure is inactive: -2.58% and inactive: 12.3%; as for `NC(=O)CCCCC1CCSS1` (configuration not stated), inactive: -11%.
Regarding `CCOC(=O)C1CCCCN1C(=O)c1ccc(-n2cc(NC(=O)c3cccnc3)cn2)cc1` (configuration not stated), the activation was inactive: -7.49%.
As for `CS(=O)(=O)OCCCCOS(C)(=O)=O`, the figure is inactive: -26% and inactive: -9.31%.
On to `COc1cccc(CNC(=O)c2c(OC)cc(=O)n3c2CCN(C(=O)C2CC=CCC2)CC3)c1` (configuration not stated), for which the activation is inactive: -16%.
The same measure for `O=C(/C=C/c1ccc(O)cc1)c1ccc(O)cc1O`: inactive: 2.18% and inactive: -7.17% and inactive: -18.5%.
The same measure for `COc1ccc(C(=O)N2CCC3(CCN(C)CC3)CC2)cc1`: inactive: -6.12%.
As for `Cc1ccc2[nH]c(C(=O)N3CCc4c(cnc(C)c4CNC(=O)c4ccccc4F)C3)cc2c1`, the figure is inactive: -2.9%; as for `CCCCCCCCC(=O)NCc1cc(OC)c(O)cc1I`, inactive: -54.8%.
Regarding `Cc1c(NC(=O)c2cccnc2)c(=O)n(-c2ccccc2)n1C`, the activation was inactive: -13.2% and inactive: -23.4%.
As for `Nc1nc2nc(Cl)[nH]c2c(=O)[nH]1`, the activation was inactive: 0.988%.
For `O=S1(=O)CCOC[C@H](Cc2ccccc2)N1Cc1ccccc1Br`, the activation was inactive: -6.13%.
The same measure for `Cc1nnc(C(C)C)n1C1C[C@H]2CC[C@@H](C1)N2CC[C@H](NC(=O)C1CCC(F)(F)CC1)c1ccccc1` (some centres not stated): inactive: -1.82%.
As for `O=C(Nc1ccc(Br)cc1)c1cc(Br)c(Br)s1`, the figure is inactive: 18.5%; as for `OCc1c[nH]c2ccccc12`, inactive: -21.7% and inactive: -24.1%; as for `COC(=O)C1=C(C)NC(C)=C([N+](=O)[O-])[C@H]1c1ccccc1C(F)(F)F`, inactive: -35%.
In the case of `COc1ccc(CNC(=O)c2cnn(-c3nccc(-c4ccco4)n3)c2C)cc1OC`, the activation is inactive: -3.1%.
The same measure for `CC(=O)NCc1c(I)c(NC(C)=O)c(I)c(C(=O)O)c1I`: inactive: 4.21%; for `COc1ccc(C(=O)C2C3C4COC(O4)C(=O)C3C3C=Cc4ccccc4N32)c(OC)c1` (configuration not stated): inactive: 11%; for `Cc1nc2cnc(N3CCNCC3)nc2n(CCC#N)c1=O`: inactive: -3.11%.
On to `CN1C(=O)CC[C@H]1c1cccnc1`, for which the activation is inactive: 20.4% and inactive: -18%.
For `CC(C)N1CCN(c2ccc(OC[C@H]3CO[C@](Cn4cncn4)(c4ccc(Cl)cc4Cl)O3)cc2)CC1`, the activation was inactive: -11.7%.
Regarding `CC[C@@]1(O)C[C@H](O[C@H]2C[C@H](N(C)C)[C@H](O[C@H]3C[C@H](O)[C@H](O[C@H]4CCC(=O)[C@H](C)O4)[C@H](C)O3)[C@H](C)O2)c2c(cc3c(c2O)C(=O)c2c(O)cccc2C3=O)[C@H]1C(=O)OC`, the activation is inactive: 26%.
As to `COC(=O)C[C@H]1c2ccccc2S(=O)(=O)N1c1ccc(N(C)C)cc1`, the activation was inactive: -28.1%.
As for `Cc1ccc(O)c(C(CCN(C(C)C)C(C)C)c2ccccc2)c1` (configuration not stated), the activation is inactive: -15.1%.
Consider `CO[C@@H]1[C@@H](O[C@@H]2O[C@H](C)[C@@H](O[C@H]3C[C@@](C)(O)[C@@H](OC(=O)CC(C)C)[C@H](C)O3)[C@H](N(C)C)[C@H]2O)[C@@H](CC=O)C[C@@H](C)C(=O)/C=C/C2OC2C[C@@H](C)OC(=O)C[C@H]1OC(C)=O` (some centres not stated), for which the activation was inactive: 3.39%.
As for `COc1ccc(Oc2ncc3nc(C)c(=O)n(C4CC4)c3n2)cc1`, the figure is inactive: 14.5%.
For `N#Cc1cccc(-c2nc3cnc(N4CCOCC4)nc3n(C[C@H]3CCCO3)c2=O)c1`, the activation is inactive: -9.35%.
As for `CCOC(=O)c1ccccc1O`, the figure is inactive: 4.76% and inactive: 5.12%.
As for `COCC(C)NCc1cc2ccc(OC)cc2nc1N1CCN(c2ccc(F)cc2)CC1` (configuration not stated), the activation is inactive: -1.58%.
The same measure for `Cc1noc(C)c1-c1ccc2ncnc(N3CCOCC3)c2c1`: inactive: -2.61%; for `Cc1cc(O)c(C=O)c(O)c1C(=O)O`: inactive: -13.6%; for `O=c1c(-c2ccc(F)cc2)nc2cncnc2n1C1CC1`: inactive: -18.9%.
The same measure for `COc1ccc(CN2CC[C@H]3C=CC[C@@H](C(=O)N4CCOCC4)[C@H]3C2=O)cc1OC`: inactive: -1.06%; for `CCCCCCCCCC(=O)N[C@H](CN1CCOCC1)[C@H](O)c1ccccc1`: inactive: -5.79%.
As to `CN1[C@@H]2CC[C@H]1CC(OC(=O)C(O)c1ccccc1)C2` (some centres not stated), the activation is inactive: -0.742% and inactive: 3.06% and inactive: -10.1%.
As for `O=C(c1ccncc1)N1CCC2(CCN(Cc3ccncc3)CC2)CC1`, the figure is inactive: -5.7%.
The same measure for `CC/C=C\C/C=C\C/C=C\CCCCCCCCCCCC(=O)O`: inactive: -1.27%; for `O=C(Nc1cccc(F)c1)N1CCCC2(CCN(C(=O)c3cc(C(F)(F)F)cc(C(F)(F)F)c3)CC2)C1`: inactive: -29.3%.
For `Nc1ncnc2c1ncn2[C@H]1O[C@H](CO)[C@@H](O)[C@@H]1O`, the activation is inactive: -30.4%.
The same measure for `CC(C)[C@@H]1CC[C@@H](C)C[C@H]1OC(=O)c1ccccc1O`: inactive: 2.49%.
